# Screen size: about 310,000 compounds; about 11,000 (3.5%) were called active. This list was built around the results that the source calls inconclusive (neither active nor inactive); the mix of calls is not that of the screen. Calls follow the shape of the dose curve; as a rule, active = well fitted inhibition curve with a large enough effect; inconclusive = small, poorly fitted or top-dose-only effect, or effect the other way; inactive = flat fitted curve, though single readings scatter. No potency is given beside an inconclusive call; the fits are too rough.
# Assay: VP16 counterscreen qHTS for inhibitors of ROR gamma transcriptional activity;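 also: Gal4-VP16 expression switched on by copper sulfate through the metallothionein promoter; nearly all actives have a fitted effect of over 50% in size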
# Conditions: Drosophila S2 Gal4-VP16 UAS-luciferase, luminescence, 20 h; series mostly up to 53.6 µM
# Potency is read from the fitted curve at half-maximal effect; tags tell the direction and shape of the fitted curve.
row,SMILES,Potency
1,Cc1nonc1OCCN1CCN(c2ccc([N+](=O)[O-])cc2)CC1,inactive
2,CC(C)Cn1c(SCC(=O)N2CCN(C(=O)c3ccco3)CC2)nc2ccccc2c1=O,inactive
3,COc1cc2c(-c3ccc(O)cc3)nc3c(c(C)nn3-c3ccccc3)c2cc1OC,"inconclusive [inhibitor, single point]"
4,CCS(=O)(=O)N1Cc2ccccc2CC1C(=O)Nc1nc2ccc(C)cc2s1 (stereo unspecified),"inconclusive [inhibitor, single point]"
5,CCc1ccc(N2CN(CCc3ccccc3)CNC2=S)cc1,active: 6.31 µM
6,COc1ccc2cc3c(N)c(C(=O)NCc4ccco4)sc3nc2c1,"inconclusive [inhibitor, single point]"
7,CC(=O)Oc1ccc(/C=N/NS(=O)(=O)c2ccc(C)cc2)c(OC(C)=O)c1,"inconclusive [inhibitor, single point]"
8,O=C(NCc1cccnc1)/C(=C\c1ccc(-c2ccc(Cl)c(Cl)c2)o1)S(=O)(=O)c1ccccc1,active: 5.62 µM
9,Cc1n[nH]c(=O)nc1N/N=C/c1cccs1,active: 11.2 µM
10,Cc1cccc(NC(=S)NC(=O)C2CC2)c1,"inconclusive [inhibitor, partial curve, poor fit]"
11,COc1cccc(/C=C2\SC(=S)N(CCCC(=O)N3CCCCC3CCO)C2=O)c1 (stereo unspecified),active: 2.82 µM
12,CCCCN(CC)S(=O)(=O)c1ccc(C(=O)Nc2nnc(-c3ccccc3Cl)o2)cc1,active: 0.794 µM
13,Oc1ccc(CCc2n[nH]c(=S)n2-c2ccc(F)cc2)cc1,inactive
14,COc1cccc(C(=O)O/N=C(\N)c2ccccn2)c1,active: 14.1 µM
15,N#Cc1nc(Nc2ccccc2)nc(NC2CCCCC2)n1,"inconclusive [inhibitor, single point]"
16,CCOC(=O)N1CCN(C(=O)c2cc(COc3c(F)cccc3F)on2)CC1,"inconclusive [activator, full curve, poor fit]"
17,COc1ccc(NC(=O)c2ccc3c(=O)n(-c4ccc(OC)cc4OC)c(=S)[nH]c3c2)cc1,active: 11.2 µM
18,CCCOc1ccc2oc(=O)c3c(c2c1)CCCN3C(=O)CN(C)Cc1ccccc1,inactive
19,CCCCOC(=O)c1[nH]c2c(c1C)C(=O)CC(c1cc(OC)c(OC)c(OC)c1)C2 (stereo unspecified),"inconclusive [inhibitor, single point]"
20,COc1ccc(-c2noc(CCCC(=O)NC3CCCC3)n2)cc1,active: 14.1 µM
21,COc1ccc(C2CC(O)(c3ccccc3)Oc3c(C)ccc(C(C)C)c32)cc1 (stereo unspecified),"inconclusive [inhibitor, single point]"

# — PubChem BioAssay AID2546 (National Center for Advancing Translational Sciences (NCATS), 2010)
